Data on 93 compounds can be found in PubChem BioAssay AID1508624 (National Center for Advancing Translational Sciences (NCATS), 2021).

Structures are written as SMILES. About 120 (0.25%) of roughly 48,000 compounds were called active. Not shown: some 4% with an inconclusive outcome. Calls follow the shape of the dose curve; as a rule, active = well fitted activation curve with a large enough effect; inconclusive = small, poorly fitted or top-dose-only effect, or another doubt; inactive = no such curve, though single readings can be large or run the other way. This is one part of the list.

The assay is described as follows: Primary qHTS for Identification of Small Molecule Activators of Huntingtin-Antisense Promoter Activity. Also: nearly all actives have a fitted effect of over 55% in size. The conditions noted are these: HEK293 HTT-AS promoter firefly luciferase reporter, 24 h; series mostly up to 57.5 µM; activity change, positive = activation: at the top concentration. Put shortly: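 HEK293 luciferase promoter-reporter cells (2,500/well) plated 24 h, then compounds added at up to 57.5 uM final for 24 h at 37 °C. Firefly luminescence by Dual-Glo, normalized to vehicle (0%) and zero RLU (-100%).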
On the technique in general: In qHTS, concentration-response curves come from the screen itself.
On to `Cc1ccc(Cl)cc1-n1ncc2c(Nc3ccc4c(c3)OCCO4)ncnc21`, for which the “activity change, positive = activation” value is inactive: -42.8%.
To `O=C(CO)N1CCC(c2[nH]nc(-c3ccc(Cl)cc3)c2-c2ccncn2)CC1` belongs inactive: -16.2%; to `CC(=O)N1CCCC1c1nc2ccccc2n1Cc1ccc(F)cc1` (stereo not drawn), inactive: -11.1%; to `COc1cc(NS(=O)(=O)c2c(C(=O)N3CCCCC3)c(C)n(C)c2C)cc(OC)c1OC`, inactive: -2.14%.
To `CCC(C)c1ccccc1OCC(=O)Nc1ccc(S(=O)(=O)Nc2cc(C)on2)cc1` (stereo not drawn) belongs inactive: -5.01%; to `CC1CCc2c(sc3nnn(CC(=O)Nc4c(C(C)C)cccc4C(C)C)c(=O)c23)C1` (stereo not drawn), inactive: -20.1%.
Take `O=C(Nc1cccc2cccnc12)c1ccc(-c2cccc(Cl)c2)o1`: the “activity change, positive = activation” value was inactive: -0.514%.
To `COc1ccc(-c2cc3ncc(C(=O)c4cc([N+](=O)[O-])ccc4O)cn3n2)cc1` belongs inactive: -69%.
Turning to `CCCn1c2ccccc2c2cnn(CC(=O)NCCCN(CC)c3ccccc3)c(=O)c21`, the “activity change, positive = activation” value was inactive: -21.7%.
With `CCc1ccc(NS(=O)(=O)c2ccc3[nH]cc(C(=O)NCc4ccc(C)cc4)c(=O)c3c2)cc1`, the “activity change, positive = activation” value is inactive: -31.6%.
On to `CCOc1ccc(-n2c(=O)c3c4c(sc3n(Cc3cccc(C)c3)c2=O)CCCC4)cc1`, for which the “activity change, positive = activation” value was inactive: 16.7%.
In the case of `Clc1ccc2nc(Nc3ccccc3Cl)nc(-c3ccccc3)c2c1`, the “activity change, positive = activation” value was inactive: 10%.
For the compound `CC(=O)O[C@@H]1C(=O)O[C@@H]2[C@H]1OC(=O)[C@@H]2OC(C)=O`, the “activity change, positive = activation” value is inactive: -17.8%.
To `CCc1ccc(NCc2cc3cc4c(cc3n(CC(=O)Nc3ccccc3Cl)c2=O)OCO4)cc1` belongs inactive: -27.1%.
Consider `CCOCCCNC(=O)C1CCN(c2cc(C)nc3c(-c4ccc(Cl)cc4)c(C)nn23)CC1`, for which the “activity change, positive = activation” value was inactive: -0.178%.
As for `COc1ccc(OC)c(NC(=O)c2c(NCc3ccc(OC)c(OC)c3)sc3c2CCC3)c1`, the figure is inactive: -15.6%; as for `CCOc1ccccc1NC(=O)Nc1cc(C(=O)NCc2ccc(C)cc2)ccc1N1CCCC1`, inactive: -5.26%.
As for `O=C(Nc1ccc(Br)cc1F)C(NS(=O)(=O)c1cccc2nsnc12)c1ccccc1` (stereo not drawn), the figure is inactive: -4.49%.
To `Cc1ccc(NC(=O)c2cc3c(-c4ccccc4)nn(-c4ccccc4)c3s2)cc1` belongs inactive: -0.918%; to `COc1ccc(NC(=O)Cn2c(=O)n(CC(=O)NCCc3ccccc3)c(=O)c3ccccc32)cc1`, inactive: -6.62%; to `COc1ccc(CNC(=O)c2cc3c(-c4ccccc4F)nn(C)c3s2)cc1`, inactive: -29.3%.
Take `CC/C(=C(/CC)c1ccc(O)cc1)c1ccc(O)cc1`: the “activity change, positive = activation” value was inactive: -44.5%.
As for `COc1ccc(NC(=O)CN2C(=O)CCc3cc(S(=O)(=O)N4CCOCC4)ccc32)c(OC)c1`, the “activity change, positive = activation” value is inactive: -18%.
To `CCOc1ccccc1NC(=O)Cn1c(=O)n(-c2ccccc2)c(=O)c2c1c1cc(C)ccc1n2C` belongs inactive: -5.54%; to `CCCS(=O)c1ccc2nc(NC(=O)OC)[nH]c2c1` (stereo not drawn), “inactive”; to `CCN(C(=O)CSc1nnc(-c2cc3occc3n2C)n1-c1ccccc1C)c1cccc(C)c1`, inactive: -3.16%.
As for `COc1ccc(-c2cn3c(n2)sc2cc(C(=O)NCCCN4CCCCC4)ccc23)cc1`, the figure is inactive: -6.13%; as for `COc1ccc(N2CCN(C(=O)c3ccc4c(=O)n(CCc5ccc(OC)c(OC)c5)c(=O)[nH]c4c3)CC2)cc1`, inactive: -49.7%.
As for `CCN(CC)C(=O)c1cnn(-c2ccc(F)cc2)c1-n1cccc1`, the figure is inactive: -8.47%; as for `CCc1ccc(CNC(=O)CSc2cc(=O)n(CC)c3ccccc23)cc1`, inactive: -7.72%; as for `CCNC(=O)c1c(C)oc2ncn(C)c(=O)c12`, inactive: -21.1%.
On to `Cc1nn(CCCC(=O)Nc2cc(C(F)(F)F)ccc2Cl)c(=O)c2c1sc1ccccc12`, for which the “activity change, positive = activation” value was inactive: -5.53%.
As for `CCc1nn(CC(=O)N(CC)Cc2ccccc2)c(=O)c2cc3occc3n12`, the figure is inactive: -24.8%; as for `CC(C)(Sc1ccc(CCN(CCCCC2CCCCC2)C(=O)NC2CCCCC2)cc1)C(=O)O`, inactive: -2.8%.
To `CC1CCCCN1S(=O)(=O)c1cc2c(=O)nc3ccccn3c2cc1Cl` (stereo not drawn) belongs inactive: 13.7%.
As for `CCOc1ccc(C2C(C(=O)Nc3ccccc3OC)=C(C)Nc3c(C(=O)Nc4cccc(C)c4)cnn32)cc1` (stereo not drawn), the “activity change, positive = activation” value was inactive: -8.54%.
As for `O=C1CC(c2nnc(Cc3cccc(Cl)c3)o2)CN1c1ccccc1` (stereo not drawn), the figure is inactive: -22.5%; as for `Cc1ccc2c(c1)cc1c(=O)n(Cc3ccc(Cl)cc3)nc(C)n12`, inactive: -4.41%.
As for `COc1cccc(-c2cc(C(=O)Nc3ccc(Br)c(C)c3)[nH]n2)c1`, the figure is inactive: 12.4%; as for `COc1ccc(-n2c(=O)c3ccc(C(=O)NCc4ccc(C)cc4)cc3n(Cc3cccc(Cl)c3)c2=O)cc1`, inactive: -21%; as for `COc1ccc(CN(Cc2ccco2)C(=O)c2ccccc2F)cc1`, inactive: -13.6%.
As for `Cc1cccc(C)c1NS(=O)(=O)c1ccc2c(c1)[C@H]1C=CC[C@H]1[C@@H](c1ccc(Cl)cc1)N2`, the figure is inactive: -20.2%; as for `CCn1c(CC2C(=O)Nc3ccccc32)nc2ccccc2c1=O` (stereo not drawn), inactive: -15.2%.
With `O=C(Nc1cc(-c2nc3ccccc3o2)ccc1Cl)c1ccc(Br)o1`, the “activity change, positive = activation” value was inactive: 17.9%.
Turning to `Cc1c(C(=O)NCc2ccccc2)sc2nc[nH]c(=O)c12`, the “activity change, positive = activation” value is inactive: 6.81%.
To `COc1cc(-c2noc(-c3ccc(N(C)C)c([N+](=O)[O-])c3)n2)cc(OC)c1OC` belongs inactive: -7.09%.
As for `Cc1ccc(CCNc2nc3c(S(=O)(=O)c4ccccc4)nnn3c3ccsc23)cc1`, the figure is inactive: -13.6%; as for `Cc1ccccc1Cn1c2ccccc2c2cnn(CC(=O)NCCCc3ccccc3)c(=O)c21`, inactive: -13.3%.
As to `COc1cccc(Cc2nc3ccccc3nc2SCC(=O)N2CCN(c3ccccc3)CC2)c1`, the “activity change, positive = activation” value is inactive: -23.9%.
`CSc1ccc2c(c1)N(CCC1CCCCN1C)c1ccccc1S2` (stereo not drawn): the “activity change, positive = activation” value is inactive: -28.4%.
To `O=C(Cn1c(-c2cccs2)cc2cc(F)ccc21)N1CCN(c2cccc(Cl)c2)CC1` belongs inactive: -17%.
As for `CC(=O)Nc1ccc(S(=O)(=O)NC2(C(F)(F)F)NC(=O)N(c3ccccc3F)C2=O)cc1` (stereo not drawn), the figure is inactive: 2.44% [at 11.5 µM, percent change from vehicle, -100% = no light]; as for `CCC1CN(C(=O)Nc2cccc(OC)c2)c2ccccc2O1` (stereo not drawn), inactive: -23.9%.
For the compound `COc1ccc2c(c1)c1c(c(=O)n(-c3ccc(F)c(Cl)c3)c(=O)n1CC(N)=O)n2C`, the “activity change, positive = activation” value was inactive: -0.732%.
Consider `CCOc1ccc(-c2c(C)nn3c(C)c(C(=O)NCCc4ccccc4)cnc23)cc1OCC`, for which the “activity change, positive = activation” value was inactive: -23.8%.
Take `COc1cccc2c1cc1c(=O)n(CC(=O)O)nc(C)n12`: the “activity change, positive = activation” value is inactive: -4.26%.
To `CCOc1ccc(Nc2sc(C(=O)c3ccc4c(c3)OCO4)c(N)c2S(=O)(=O)c2ccc(C)cc2)cc1` belongs inactive: -16.5%; to `Cn1nc(C(=O)N2CCN(c3ccc(Cl)cc3)CC2)c2c1-c1ccccc1S(=O)(=O)C2`, inactive: -25.2%; to `COc1ccc(-c2cc(C(F)(F)F)nc(NCc3ccc(Cl)cc3)n2)cc1`, inactive: -22.5%.
As for `COc1ccccc1CNC(=O)CSc1cc(=O)n(C)c2ccccc12`, the figure is inactive: 27.3%; as for `COc1ccc(CNC(=O)c2cnc(N3CCCC3)nc2C)c(OC)c1`, inactive: 1.62%; as for `CCOC(=O)c1cnc2ccc(OC)cc2c1Nc1ccc(OCc2ccccc2Cl)cc1`, inactive: -46.2%.
To `Cc1ccc(NC(=O)CCC(=O)N2Cc3ccccc3Oc3ncccc32)cc1Cl` belongs inactive: -21.1%; to `COc1ccccc1CNC(=O)C(NS(=O)(=O)c1ccc2c(c1)CCN2C(C)=O)C(C)C` (stereo not drawn), inactive: -24.9%; to `COc1ccc(-c2nc3sc(CCNC(=O)Cc4ccccc4)c(C)n3n2)cc1`, inactive: 10.5%.
In the case of `COc1ccc(C)cc1NC(=O)c1nnn(Cc2cccc(Br)c2)c1N`, the “activity change, positive = activation” value is inactive: -26.5%.
With `COc1ccc(C2=NS(=O)(=O)N(C)C(C(=O)NC(C)c3ccccc3)=C2)cc1` (stereo not drawn), the “activity change, positive = activation” value was inactive: -15.3%.
With `Cc1ccc2oc(C(=O)Nc3ccc(S(=O)(=O)N4CCCCC4C)cc3)cc(=O)c2c1` (stereo not drawn), the “activity change, positive = activation” value was inactive: -11.5%.
As for `CCN(CC)S(=O)(=O)c1ccc2c(c1)N(CC(=O)NCCCN1CCN(c3ccc(OC)cc3)CC1)C(=O)CO2`, the figure is inactive: -7.87%.
As for `CCN(C(=O)CSc1nc2ccccc2n1CC(=O)N(C)C1CCCCC1)c1ccccc1`, the figure is inactive: -25.8%; as for `CCOC(=O)c1cc(-c2ccccc2)n(CCC(=O)NCCc2ccccc2)c1C`, inactive: -21.1%.
Consider `CCc1ccc(C(=O)c2cn(CC(=O)Nc3cc(OC)ccc3OC)c3ccc(Cl)cc3c2=O)cc1`, for which the “activity change, positive = activation” value is inactive: -13.6%.
To `CCc1c(C)sc2c1CCN(Cc1ccccc1C#N)C2c1ccccc1` (stereo not drawn) belongs inactive: -4.93%; to `CCOc1ccc(CNC(=O)C2CCN(c3nc4ccccc4nc3C(F)(F)F)CC2)cc1OC`, inactive: 11.2%; to `CC1CCN(c2oc(-c3cccs3)nc2S(=O)(=O)c2ccccc2)CC1`, inactive: 8.29% [at 11.5 µM, percent change from vehicle, -100% = no light].
For the compound `CCOC(=O)c1cnc2c(ccc3ccccc32)c1Nc1cccc(Cl)c1`, the “activity change, positive = activation” value was inactive: 5.82%.
To `COc1ccc(CCNC(=O)c2cnc3sc(N4CCOCC4)nn3c2=O)cc1` belongs inactive: -0.89%; to `Cc1nn(C)c2c1c(-c1ccccc1)cc(=O)n2Cc1ccc(F)cc1`, inactive: -13.9%; to `COc1ccc(-n2cc(-c3ccc4c(c3)OCO4)n(CC(=O)Nc3cc(Cl)ccc3C)c2=O)cc1`, inactive: 8.01%.
Turning to `COc1ccc(-n2nc3ccc(NC(=O)c4cccc(OCCC(C)C)c4)cc3n2)cc1`, the “activity change, positive = activation” value was inactive: -27.6%.
As for `NC(N)=Nc1nc(CSCC/C(N)=N/S(N)(=O)=O)cs1`, the figure is inactive: -5.08%.
To `Cc1cc(OCC(=O)N2CCC(c3nc4ccccc4s3)CC2)ccc1Cl` belongs inactive: -28%; to `O=C(CSc1ncc(-c2ccccc2)[nH]1)Nc1cccc(Br)c1`, inactive: 1.19%.
To `Cc1ccc(-c2nnn3c2nc(NC2CCC(C)CC2)c2ccccc23)cc1` (stereo not drawn) belongs inactive: 0.5%; to `CCOCCc1nnc(NC(=O)C(=O)c2cc(C)n(-c3ccc(Cl)cc3)c2C)s1`, inactive: 1.23%; to `Cc1cc2n(n1)CCCN2C(=O)Nc1ccc(F)c(Cl)c1`, inactive: -5.74%.
Turning to `COC(=O)CN1C(C(=O)c2ccccc2)=C(OC(=O)c2ccc(F)cc2)c2ccccc2S1(=O)=O`, the “activity change, positive = activation” value was inactive: -16.4%.
For `Cc1ccc(S(=O)(=O)c2cnc(SCC(=O)Nc3ccc4c(c3)OCCO4)[nH]c2=O)cc1C`, the “activity change, positive = activation” value was inactive: -5.41%.
With `COc1cccc(-n2c(C)nc3cc(C(=O)O)ccc32)c1`, the “activity change, positive = activation” value was inactive: 15.4%.
To `COc1cc2nc(NC(=O)c3ccc(S(=O)(=O)N4CCc5ccccc54)cc3)sc2cc1OC` belongs inactive: -40.9%; to `COc1cccc(-c2nc3c(C#N)c[nH]n3c2NC2CCCC2)c1OC`, inactive: -7.92%.
To `CC1CCCCN1C(=O)c1ccc2c(c1)N(Cc1ccc(F)cc1)C(=O)c1ccccc1S2(=O)=O` (stereo not drawn) belongs inactive: -26.9%; to `CCN(CCCNC(=O)c1cc2c(=O)n(CC)c3ccccc3c2s1)Cc1ccccc1`, inactive: -7.64%.
